Several values for one entry are separate records, joined by “and”; a condition that tells them apart may be missing. Identical values can stand only once.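 Interpolation was linear, between the two tested concentrations surrounding the appropriate level; five concentrations were tested over 48 hours in 96-well plates. Abbreviation: GI50, concentration required for 50% inhibition of growth. TGI is the concentration that stops growth completely.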

The subject of the test is NCI-H322M lung. Briefly: NCI anticancer screen, dose series, 48 h.
Regarding `COC(c1ccc(C(C)(C)C)cc1)(c1ccc(C(C)(C)C)cc1)c1cc(C(O)(c2cc(C(OC)(c3ccc(C(C)(C)C)cc3)c3ccc(C(C)(C)C)cc3)c(C)cc2C)c2cc(C(OC)(c3ccc(C(C)(C)C)cc3)c3ccc(C(C)(C)C)cc3)c(C)cc2C)c(C)cc1C`, the TGI was > 100 µM.

In the case of `COc1ccc2c(c1)C(=O)c1ccccc1C2`, the TGI was > 100 µM.

As to `N#Cc1cnn2ccn(C3OC(COC(=O)c4ccccc4)C(OC(=O)c4ccccc4)C3OC(=O)c3ccccc3)c12` (stereo not given), the TGI was > 31.6 µM.

For the compound `CC(C)(CO)N1C(=O)c2ccccc2C1(O)c1ccc(Cl)cc1` (stereo not given), the TGI was > 100 µM. Consider `CSc1c(C(=O)Nc2ccc(C)cc2)c(N)[nH]c(=O)c1C#N`, for which the TGI was > 100 µM. Consider `C(=Nc1ccc(-c2nc3ccccc3s2)cc1)c1ccco1`, for which the TGI was > 100 µM. For the compound `Cc1c(Cl)cccc1Nc1ncccc1C(=O)O`, the GI50 was > 100 µM and the TGI was > 100 µM. Regarding `O=C(O)CCCc1ccc(N(CCCl)CCCl)cc1`, the TGI is 84.2 µM and 574 µM and 710 µM. For `O=C(/C=C(\[O-])c1ccccc1)CCCCCCC(=O)/C=C(\[O-])c1ccccc1.O=C(/C=C(\[O-])c1ccccc1)CCCCCCC(=O)/C=C(\[O-])c1ccccc1.O=C(/C=C(\[O-])c1ccccc1)CCCCCCC(=O)/C=C(\[O-])c1ccccc1.[La+3].[La+3]`, the GI50 was > 50 µM and the TGI was > 50 µM. For `O=C(O)Cc1c[nH]c2ccc(F)cc12`, the TGI was > 100 µM. With `COc1ccc(N=Cc2cc(OC)c(OC)c(OC)c2)cc1`, the TGI was > 100 µM. In the case of `CC(=O)Nc1ccc(Cl)c(Cl)c1`, the TGI is > 100 µM. With `O=C1C(Br)=Cc2c(Cl)sc(Cl)c21`, the TGI was 38.5 µM. For `O=C(CCc1ccc(O)cc1)c1c(O)cc(O)cc1OC1OC(CO)C(O)C(O)C1O` (stereo not given), the TGI was > 100 µM. `CC1=C2[C@@H](CC1)[C@]1(C)O[C@@](C(C)C)(C[C@H]1OC(=O)[C@H](C)O)[C@H]2OC(=O)/C=C/c1ccccc1`: the GI50 is 17.2 µM and the TGI was determined as 35.6 µM.

Take `Clc1ccc(Cc2nc3cc4ccccc4cc3[nH]2)cc1`: the GI50 is 27.3 µM and the TGI is > 100 µM. For the compound `CN(C)CCNC(=O)c1cccc2nc3c(Cl)cccc3nc12`, the TGI was found to be 44.6 µM. On to `OC(c1cccc(C(F)(F)F)c1)c1cnccc1NC1CCCCCC1` (stereo not given), for which the GI50 is 2.02 µM and the TGI worked out at 5.29 µM.

As for `OCCNCO`, the TGI is > 100 µM. As to `O=C(N/N=C/c1cccc(O)c1O)N/N=C/c1cccc(O)c1O`, the TGI stood at 79.5 µM. For `CC(C)CCNC(=O)c1ccc(CNC(=O)/C=C/c2ccc(OCc3ccccc3)cc2)cc1`, the TGI was > 100 µM. Regarding `CCOC(=O)C(=O)N1C(C)=C(C(=O)OCC)CC(C(=O)OCC)=C1C`, the TGI was > 100 µM. Still for that read-out and setting: the same measure for `C=CC/C(C(=O)OC)=C(/C(=O)OC)N(CCC)CCC`: > 100 µM.

`CCC[C@H](C)[C@H]1NC(=O)[C@@H](NC(=O)[C@@H](CC(C)C)N(C)C(=O)C2CCCN2C(=O)[C@H](C)O)[C@@H](C)OC(=O)[C@H](CC(C)C)N(C)C(=O)[C@@H]2CCCN2C(=O)[C@H](CC(C)C)NC(=O)[C@@H](C)C(=O)[C@H](C(C)C)OC(=O)C[C@@H]1O` (stereo not given in full): the TGI was 0.0231 µM. Still for that read-out and setting: the same measure for `Cc1cccc(C(C)(C)C)c1NC(=O)C(=O)Cc1nc2ccccc2s1`: > 100 µM.

In the case of `CN(C)CCNc1nc2ccccc2c2[nH]c3ccccc3c12`, the GI50 was 0.234 µM and the TGI stood at 1.06 µM. For `CN(O)C(=O)Cc1ccc(OCc2cccc(Cl)c2)cc1`, the TGI was > 100 µM. With `Cc1cccc2c3ccc4c(c3n(C)c12)C(=O)C=CC4=O`, the TGI is > 100 µM. In the case of `O=C1NC(=O)C2C(=O)NC(=O)C1C2(c1ccccc1)c1ccc(Cl)cc1` (stereo not given), the TGI was > 100 µM.

As for `COC(=O)c1c2c(c(C)[n+]([O-])c1C)C(=O)C=CC2=O`, the GI50 is 1.68 µM and the TGI stood at 3.08 µM.

Turning to `CC(=O)OCCc1cccnc1/C=N/O`, the TGI was > 100 µM. For the compound `COc1cc2c(cc1OC)C(=O)/C(=C/c1cc(C)c(O)c(C)c1)C2`, the TGI is > 100 µM. Regarding `CCOC(=O)C1C(=O)CC(O)(c2ccccc2)C(C(=O)OCC)C1c1ccc(OC)cc1` (stereo not given), the TGI is > 100 µM.

With `COc1cc2c(NCCCCCCO[N+](=O)[O-])ncnc2c(OC)c1OC`, the TGI was found to be 75.1 µM. For `CCOC(=O)c1c(SCCN2CCCC2)n(-c2ccccc2)c(=S)n(-c2ccccc2)c1=O`, the TGI came out at 32.2 µM. `CCOC(=O)C1CC(O)C(=O)N1C` (stereo not given): the TGI is > 100 µM. On to `O=C(OCc1ccccc1)OOC(=O)OCc1ccccc1`, for which the TGI was > 100 µM.

Turning to `COc1cc([C@@H]2c3cc4c(cc3C[C@H]3COC(=O)[C@@H]32)OCO4)cc(OC)c1OC`, the GI50 was 0.00374 µM and the TGI was > 50 µM. On to `Cc1nc2nnc(C)n2c2c1C(=O)Nc1ccccc1N2`, for which the TGI is > 100 µM. Take `Cc1ccc(C2=Nc3c(c(C)nn3-c3ccccc3)N=C(C(=O)O)C2)cc1`: the TGI is > 10 µM. As for `c1ccc(N=c2snc(-c3ccccc3)s2)cc1`, the TGI is > 100 µM. Turning to `CCN1CCN(c2nc(NCCNc3ccnc4cc(Cl)ccc34)c3ccccc3n2)CC1`, the GI50 is 2.46 µM and the TGI is 8.71 µM. For `Cc1cc(C)nc(NS(=O)(=O)c2ccc(NC(=O)c3cccc4c(=O)c5ccccc5[nH]c34)cc2)n1`, the TGI stood at 43 µM.

In the case of `CC1CCC[P+](Cc2ccccc2)(c2ccccc2)CC1` (stereo not given), the TGI was > 100 µM. Same read-out and setting: the same measure for `O=c1c2cc(I)ccc2[nH]c(=S)n1Cc1ccccc1`: 75.7 µM. For the compound `CN1CCN(Cc2ccc(NC(=O)c3cncc(C#Cc4cnc(N)c5ccccc45)c3)cc2C(F)(F)F)CC1`, the GI50 was 0.273 µM and the TGI was 0.833 µM.

Consider `CCn1c(=O)c2c3cc(O)ccc3oc2c2ccc(O)cc21`, for which the TGI is > 100 µM. On the same count and under the same terms, the same measure for `O=C(O)Cc1ccc2nc(COC(=O)c3ccccc3)sc2c1`: > 100 µM. `Nc1ncnc2c1ncn2C(=O)NC12CC3CC(CC(C3)C1)C2`: the TGI was > 100 µM.

As for `NS(=O)(=O)c1ccc(-n2nc(-c3ccc(Br)cc3)ccc2=O)cc1`, the GI50 is > 10 µM and the TGI was > 10 µM. As to `CCOC(=O)CCCO`, the TGI is > 100 µM.

Take `S=C1NCCN1C1=Nc2ccccc2CO1`: the GI50 was > 100 µM and the TGI is > 100 µM. Consider `COc1cc2c(cc1OC)C1C=NC(C(=O)O)(C2)c2ccccc21` (stereo not given), for which the TGI is > 100 µM. On to `Cc1cc2cccc(Cl)c2nc1C(=O)c1ccccc1`, for which the TGI was > 100 µM. Consider `Cc1cc(C)c2c(n1)S(=O)(=O)N(CCCN1CCN(c3cccc(C(F)(F)F)c3)CC1)/C(=C(\O)c1ccc(Cl)cc1)C2=O`, for which the TGI was determined as 18.3 µM. Consider `CCOC(=O)c1cc(-c2ccc([N+](=O)[O-])cc2)n(-c2ccc(C(=O)O)c(O)c2)c1C`, for which the GI50 was 12.7 µM and the TGI was determined as 25.9 µM. Regarding `Cc1c(N2C(=O)/C(=C\c3ccccc3O)N=C2c2ccccc2)c(=O)n(-c2ccccc2)n1C`, the GI50 was 97.3 µM and the TGI is > 100 µM. Consider `C1CN2N3CCCC23C1` (stereo not given), for which the TGI is > 100 µM.

Regarding `O=C1NC(=S)NC(=O)C1C(c1ccccc1[N+](=O)[O-])C1C(=O)NC(=S)NC1=O`, the TGI is > 100 µM. Still for that read-out and setting: the same measure for `O=C1Oc2cc3c(c4cccc1c24)OCN(c1ccc(Cl)cc1)C3`: > 100 µM; for `CC(=O)CC(=O)c1cc2c(=O)oc(C)cc2oc1=O`: > 37.5 µM; for `O=C(Nc1ccccc1[N+](=O)[O-])c1ccccc1`: > 100 µM. Turning to `Cc1c(C(=O)/C=C/c2cccc3ccccc23)[n+](=O)c2ccccc2n1[O-]`, the TGI amounted to 30.2 µM. Turning to `c1ccc(-c2nnc(-c3nn(-c4ccccc4)c4nc5ccccc5nc34)o2)cc1`, the TGI is > 100 µM. In the case of `COc1cccc(-c2nc(-c3cnccn3)n(Cc3ccccc3)n2)c1`, the TGI was > 100 µM. Take `CN(C)c1ccc2c(c1)oc(=O)c1ccccc12`: the TGI was determined as 27.9 µM. For the compound `CN=C1NC(=O)/C(=C/c2ccc3ncccc3c2)S1`, the GI50 is 8.58 µM and the TGI is > 25 µM. `Cc1cc(O)cc(O)c1N=Nc1ccc([N+](=O)[O-])cc1`: the TGI came to 43.8 µM.

For `OCc1ccccc1C1CSCSC1`, the TGI was > 100 µM. Take `O=C1/C(=C/c2ccc([N+](=O)[O-])cc2)CNC/C1=C\c1ccc([N+](=O)[O-])cc1`: the TGI was > 100 µM. In the case of `COc1cccc(-c2nn(-c3ccccc3)cc2-c2ccnc(NCCCNS(=O)(=O)c3cccc(F)c3)c2)c1`, the GI50 is > 100 µM and the TGI was > 100 µM. For `CCOc1ccc(N=C/C=C(\Cl)c2ccc3ccccc3c2)cc1`, the TGI is 32 µM. As to `C=C1CC(OC)(C(O)C(=O)N[C@H]2OCO[C@H]3C2O[C@H](C[C@@H](COC)OC)C(C)(C)C3OC)O[C@H](C)[C@@H]1C` (stereo not given in full), the TGI was < 0.00482 µM.

As for `COc1ccccc1NC(=O)c1ccc(/C=C/C(=O)c2nccn2C)cc1`, the GI50 is 0.479 µM and the TGI was found to be 1.2 µM. Regarding `CCCCCCCCCCCCCCC1OC(=O)c2ccccc21` (stereo not given), the TGI was > 100 µM. On the same count and under the same terms, as for `Brc1ccc2c3c1[C@@H]1O[C@@H]1c1cccc(c1-3)[C@@H]1O[C@H]21`, the figure is > 73.7 µM. Regarding `CC(C)c1c(P(=O)(c2ccccc2)c2ccccc2)n(C)c2ccccc12`, the TGI was > 100 µM. Regarding `COc1cc([C@@H]2c3cc4c(cc3[C@@H](NC(=O)c3cccc([N+](=O)[O-])c3)C3COC(=O)[C@@H]32)OCO4)cc(OC)c1O` (stereo not given in full), the TGI was > 100 µM. For `N#Cc1c(OCCF)c2ccccc2n2c1nc1ccccc12`, the TGI is > 100 µM. Turning to `CC1CC(C#N)=C2NCCCCN2C1=O` (stereo not given), the TGI is > 100 µM.

`C[C@@H]1C[C@H](O)[C@]2(O)O[C@@H]3C[C@@]4(C=O)[C@@H](CC=C5[C@@H]4CC[C@]4(C)[C@@H](C6=CC(=O)OC6)CC[C@]54O)C[C@H]3O[C@@H]2O1`: the TGI was found to be 0.27 µM. `O=C1OC[C@@H]2Cc3c([nH]c4ccccc34)[C@@H](c3ccc(O)cc3)N12`: the TGI was > 100 µM.

As for `O=C(O[C@H](/C=C/c1ccccc1)P1(=O)N(Cc2ccccc2)[C@@H]2CCCC[C@H]2N1Cc1ccccc1)c1ccccc1`, the TGI is > 100 µM. For the compound `COc1cc2c(c(O)c1C)C(=O)C(Cl)=CC2=O`, the TGI was found to be 34.1 µM. Same read-out and setting: the same measure for `O=C1N[C@@H]2c3c(csc3Br)C(=O)[C@@H]2O1`: > 100 µM. Consider `CO/N=C1/c2sccc2[C@H](NC(=O)CNC(=O)OC(C)(C)C)[C@@H]1O`, for which the TGI is > 100 µM. With `O=c1c(Cl)c(Cl)cnn1-c1ccccc1`, the GI50 is 2.68 µM and 9.53 µM; the TGI is 11.6 µM and 17.8 µM.

For the origin of these results see PubChem BioAssay (NCI).
